# From PubChem BioAssay AID485294 (National Center for Advancing Translational Sciences (NCATS), 2010)
# Values joined by “and” are separate entries in the source; they are usually repeats but may differ in a detail not shown here. Equal values may be shown once. Hit rate of the full screen: of about 370,000 compounds, about 150 (0.041%) were called active. This list was built around the results that the source calls inconclusive (neither active nor inactive); the mix of calls is not that of the screen. Calls follow the shape of the dose curve; as a rule, active = well fitted inhibition curve with a large enough effect; inconclusive = small, poorly fitted or top-dose-only effect; inactive = flat fitted curve, though single readings scatter. A potency beside an inconclusive call is a rough fit, not a confirmed value.
# Target: Beta-lactamase (Escherichia coli (strain K12)) (UniProt P00811)
# Chain of UniProt P00811 (P00811 whole entry, looked up): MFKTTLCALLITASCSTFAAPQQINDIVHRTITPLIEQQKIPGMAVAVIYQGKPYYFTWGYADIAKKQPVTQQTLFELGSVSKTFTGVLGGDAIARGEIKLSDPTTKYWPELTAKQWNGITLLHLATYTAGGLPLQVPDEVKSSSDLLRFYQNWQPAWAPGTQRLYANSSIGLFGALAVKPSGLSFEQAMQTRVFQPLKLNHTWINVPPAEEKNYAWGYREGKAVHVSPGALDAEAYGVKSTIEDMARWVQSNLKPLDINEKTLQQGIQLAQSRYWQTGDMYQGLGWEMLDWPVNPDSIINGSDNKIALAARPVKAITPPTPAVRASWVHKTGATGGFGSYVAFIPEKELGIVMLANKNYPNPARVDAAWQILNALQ
# Test: qHTS Inhibitors of AmpC Beta-Lactamase (assay with detergent); also: nearly all actives have a fitted effect of over 25% in size;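 as to activity change, negative = inhibition: 0% = no-compound wells and -100% = no-enzyme wells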
# Details: AmpC hydrolysis of nitrocefin, absorbance 480 nm, 0.01% Triton; activity change, negative = inhibition: at 114 µM (top of the series)
# Outline: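 AmpC (5.3 nM in the dispensed reagent) in 20 mM phosphate pH 7.0 with 0.01% (detergent screen) or 0.0001% Triton X-100 was preincubated with compounds for 15 min at room temperature. Nitrocefin was then added from an 800 uM solution, and hydrolysis was followed at 480 nm.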
# Potency is read from the fitted curve at half-maximal effect; tags tell the direction and shape of the fitted curve.
SMILES,Potency,"activity change, negative = inhibition"
Cc1nc2ccc([N+](=O)[O-])cc2c(=O)n1Cc1ccc(Cl)cc1,"inconclusive: 25.1 µM [inhibitor, full curve]",
O=C(Nc1ccccc1)c1ccc(Br)c(S(=O)(=O)N2CCCCC2)c1,,inactive: 5.36%
CC(C)CN(C(=O)CCC(=O)OCC(=O)N(C)c1ccccc1)c1c(N)n(CC(C)C)c(=O)[nH]c1=O,,inactive: -12.7%
S=C(c1ccc(N2CCCC2)cc1)N1CCCCC1,"inconclusive: 56.2 µM [inhibitor, partial curve, poor fit]",
CS(=O)(=O)N(CC(=O)N1CCC(C(N)=O)CC1)c1ccc(Oc2ccccc2)cc1,"inconclusive: 2.82 µM [inhibitor, full curve]",
Cc1ccc(C(=O)N2CCCCCC2)cc1Br,"inconclusive: 3.16 µM [inhibitor, full curve]",
CC1CCCC(NC(=O)COC(=O)c2cccnc2Cl)C1C (centres undefined),"inconclusive: 0.708 µM [inhibitor, full curve, poor fit]",
CCC(O)C1CCN(C(=O)c2ccc(OC3CCN(Cc4ccccn4)CC3)cc2)CC1 (centres undefined),,inactive: 1.3%
Cc1cccc(NC(=O)c2cc(=O)[nH]c3ccccc23)c1,"inconclusive: 0.316 µM [inhibitor, full curve, poor fit]",
O=S(=O)(c1ccccc1)c1nc(Cc2ccccc2)oc1N1CCOCC1,"inconclusive: 56.2 µM [inhibitor, partial curve, poor fit]",
COc1ccc(S(=O)(=O)NCCC(=O)OCc2cc(=O)oc3cc(C)ccc23)cc1[N+](=O)[O-],"inconclusive: 39.8 µM [inhibitor, partial curve, poor fit]",
O=C(CSc1nnc(-c2ccc(F)cc2)o1)Nc1ccc(S(=O)(=O)N2CCCCCC2)cc1,"inconclusive: 8.91 µM [inhibitor, full curve, poor fit]",
O=C(NC1CCSc2ccccc21)c1cc([N+](=O)[O-])ccc1N1CCOCC1 (centres undefined),"inconclusive: 0.631 µM [inhibitor, full curve, poor fit]",
Fc1ccc(-c2csc3ncnc(N4CCN(Cc5ccccc5)CC4)c23)cc1,"inconclusive: 79.4 µM [inhibitor, single point]",
COc1cc(OC)cc(N(C(=O)c2ccco2)C(C(=O)NC2CCCC2)c2ccc(N(C)C)cc2)c1 (centres undefined),"inconclusive: 0.631 µM [inhibitor, full curve, poor fit]",
C=CCSC1=NN2CCS(=O)(=O)N=C2S1,,inactive: -3.45%
COc1ccc(C2CC(c3cccs3)n3nc(N)nc3N2)cc1 (centres undefined),"inconclusive: 3.98 µM [inhibitor, partial curve, poor fit]",
Cc1cccc(C(=O)NC2CCCCCCC2)c1,"inconclusive: 112 µM [inhibitor, partial curve, poor fit]",
COc1ccc(C(=O)N2CCN=C2c2ccccc2)cc1OC,"inconclusive: 112 µM [inhibitor, partial curve, poor fit]",
CNC(=O)c1ccsc1NC(=O)C1CCN(S(=O)(=O)c2ccc(Cl)s2)CC1,"inconclusive: 100 µM [inhibitor, partial curve, poor fit]",
O=C(COc1ccccc1)Nc1nnc(S(=O)(=O)N2CCCC2)s1,"inconclusive: 1.58 µM [inhibitor, full curve, poor fit]",
CN(C)c1ccc(P(=O)(Nc2ccccc2)N2CCOCC2)c(NC(=O)c2cccs2)c1 (centres undefined),"inconclusive: 2.82 µM [inhibitor, full curve]",

SMILES,Potency,"activity change, negative = inhibition"
CC(=O)O[C@H]1CC[C@@]2(C)C(=CC[C@H]3[C@@H]4CC[C@H](C5(C)OCCO5)[C@@]4(C)CC[C@@H]32)C1,"inconclusive: 2.82 µM [inhibitor, single point]",
COC(=O)[C@H]1[C@H]2C[C@H]3c4[nH]c5ccccc5c4CCN3C[C@@H]2CC[C@@H]1O,"inconclusive: 14.1 µM [inhibitor, partial curve, poor fit]",
O=S(=O)(c1ccc2c(c1)OCCO2)N1CCCN(S(=O)(=O)c2c(F)cccc2F)CC1,"inconclusive: 22.4 µM [inhibitor, single point]",
CCN1CCN(S(=O)(=O)c2ccc(Cl)c(C(=O)N(CC)CC(=O)Nc3ccc(OC)cc3)c2)CC1,,inactive: -2.72%
O=C(Cn1ncc2c1-c1ccccc1OC2)Nc1ccc(Cl)cn1,"inconclusive: 12.6 µM [inhibitor, partial curve, poor fit]",
COc1ccc(N=c2scc(-c3ccc(OC)cc3)n2CCO)cc1,"inconclusive: 56.2 µM [inhibitor, partial curve]",
CCCCc1nc2sc3c(=O)[nH]cnc3c2c2c1CCCC2,"inconclusive: 70.8 µM [inhibitor, single point]",
COc1ccc2c(c1OC)C(=O)OC2C1c2c(cc3c(c2OC)OCO3)CCN1C (centres undefined),"inconclusive: 631 nM [inhibitor, full curve, poor fit] and inconclusive: 20 µM [inhibitor, full curve, poor fit]",
CCOc1cc(C2Nc3cccc4cccc(c34)N2)ccc1O,"inconclusive: 0.708 µM [inhibitor, full curve, poor fit]",
CCCCc1nnc(SCC(=O)Nc2nccs2)n1C,"inconclusive: 2.82 µM [inhibitor, full curve, poor fit]",
COc1ccc(-c2csc(NC(=O)CN3C(=O)NC4(CCCC4)C3=O)n2)cc1,"inconclusive: 0.562 µM [inhibitor, full curve, poor fit]",
O=C(N/N=C/c1cn(-c2ccccc2)nc1-c1ccccc1)c1ccco1,,inactive: -6.94%
CCC(=O)Nc1nnc(CCc2ccccc2)s1,,inactive: -4.03%
Cc1cc(=O)oc2cc(OC(=O)CCCCCN3C(=O)c4ccccc4C3=O)ccc12,"inconclusive: 7.08 µM [inhibitor, full curve, poor fit]",
COc1ccc(OC)c(NC(=O)c2nc3ccccc3s2)c1,"inconclusive: 1.41 µM [inhibitor, full curve, poor fit]",
Clc1ccc(CSc2nnc3ccccn23)c(Cl)c1,"inconclusive: 12.6 µM [inhibitor, full curve]",
CC(=O)NCCc1nc2cc(NC(=O)c3ccccc3Cl)ccc2n1C,,inactive: -19%
CCCCc1ccc(C(=O)O)nc1,"inconclusive: 10 µM [inhibitor, full curve, poor fit]",
CCOc1ccc(N(CC(=O)NCCOc2ccc(C)cc2)S(=O)(=O)c2ccccc2)cc1,"inconclusive: 3.55 µM [inhibitor, full curve, poor fit]",
CC(CC(=O)Nc1ccc(S(=O)(=O)N2CCOCC2)cc1)c1ccccc1 (centres undefined),,inactive: 2.85%
CC(=O)Nc1ccccc1/C=C/c1ccc2c(C)ccc(O)c2n1,,inactive: -4.96%
Cc1ccc(-c2cc(-c3ccc(C)cc3)[n+](-c3ccc(C(=O)O)cc3)c(-c3ccc(C)cc3)c2)cc1,"inconclusive: 14.1 µM [inhibitor, partial curve]",

SMILES,Potency,"activity change, negative = inhibition"
CC(=O)Nc1ccc2c(c1)CCCC2=O,,inactive: -9.02%
CC(=O)c1cccc(OCC(=O)Nc2cc(Cl)ccc2-n2cncn2)c1,,inactive: -8.51%
CCNc1nc(NCC)n2c(SCC(=O)Nc3cccc(F)c3)nnc2n1,"inconclusive: 89.1 µM [inhibitor, single point]",
Cc1nc(-c2ccc(S(=O)(=O)Nc3ccc(S(N)(=O)=O)cc3)cc2)co1,,inactive: -6.09%
CCN(CC)C(=O)CSc1nc2c(sc(=S)n2-c2ccc(C)cc2C)c(=O)[nH]1,"inconclusive: 20 µM [inhibitor, partial curve, poor fit]",
CCOC(=O)c1ccc2c(c1)nc(SCc1cn3ccsc3n1)n2CC,"inconclusive: 25.1 µM [inhibitor, full curve, poor fit]",
COc1ccc(CCNC(=O)CSc2nc(-c3ccc(F)cc3)cc(C(F)(F)F)n2)cc1OC,,inactive: 22.3%
CCOCCCNC(=O)Cc1cc(=O)[nH]c(=O)[nH]1,"inconclusive: 39.8 µM [inhibitor, partial curve, poor fit]",
Cc1c(Cl)cccc1NC(=O)c1ncn(-c2ccccc2)n1,,inactive: 4.96%
Cc1ccccc1C(=O)N1CCN(c2ccc(NC(=O)c3cccs3)cc2)CC1,"inconclusive: 1.41 µM [inhibitor, full curve]",
COC(=O)C1=C(c2ccccc2OCc2ccccc2)C[C@@H]2CC[C@H]1N2C(=O)NCCOc1ccccc1,,inactive: 6.93%
CN1C(=S)SC(N2OC3C(=O)N(c4ccccc4)C(=O)C3C2c2ccc(Cl)cc2)C1(C)C (centres undefined),"inconclusive: 20 µM [inhibitor, single point]",
COC(=O)c1c(C)oc2ccc(N(C(=O)c3ccncc3)S(=O)(=O)c3ccc(C)cc3)cc12,"inconclusive: 3.16 µM [inhibitor, full curve, poor fit]",
CCOc1ccc(/C=N/N2C(C)CCCC2C)cc1OC (centres undefined),"inconclusive: 3.55 µM [inhibitor, full curve, poor fit]",
COc1cccc(NC(=O)CN2CCc3ccccc3C2)c1,,inactive: -0.29%
CC(C(=O)Nc1ccccc1Br)c1ccc([N+](=O)[O-])cc1 (centres undefined),,inactive: -12.3%
O=C(CSc1ccc2nnc(-c3ccc(F)cc3)n2n1)NCC1CCCO1 (centres undefined),"inconclusive: 31.6 µM [inhibitor, full curve]",
O=P(Nc1ccccc1)(Nc1ccccc1)Oc1cccc(Cl)c1,"inconclusive: 35.5 µM [inhibitor, partial curve]",
COc1ccc2nc3oc(C(=O)N4CCC5(CC4)OCCO5)cc3cc2c1,"inconclusive: 2.51 µM [inhibitor, full curve]",
Cc1ccc(-n2ncc3c2CCCC3NC(=O)c2csnn2)cc1C (centres undefined),"inconclusive: 44.7 µM [inhibitor, single point]",
